This is one part of the list. Cut-off read from the data, not from the text of the source: active = 3.2 or more and inactive = the rest. Most of these values are background signal.
What was measured:
Experiment in all cases: enrichment score (SH2-bound / input frequency) (ratio); bacterial display of known human phosphotyrosine sites (pTyr-Var adds point mutants) read by sequencing; higher = stronger binding; tyrosines were phosphorylated by kinases first
Details in all cases: peptide library: Human pTyr
[1] = molecular target: SHP2 C-SH2 domain E139D
[2] = molecular target: SHP2 C-SH2 domain wild-type
[3] = molecular target: SHP2 N-SH2 domain L43F
[4] = molecular target: SHP2 N-SH2 domain T42A
[5] = molecular target: SHP2 N-SH2 domain T52S
[6] = molecular target: SHP2 N-SH2 domain wild-type

Measured: enrichment score
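Note: displayed peptides selected on beads carrying the immobilized SH2 domain, with library peptides lacking any tyrosine serving as negative controls.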

B1: PLCG1_HUMAN_506_YA (peptide)
chain: DPVNHEWYPHAFVLT
inactive: [1] 1.25 | [2] 1.29 | [3] 1.33 | [4] 1.3 | [5] 1.26 | [6] 1.32

B2: PDPK1_HUMAN_373_YA (peptide)
chain: SEDDEDCYGNADNLL
inactive: [1] 1.14 | [2] 0.975 | [3] 0.927 | [4] 1.01 | [5] 0.996 | [6] 0.975

B3: PGFRB_HUMAN_775 (peptide)
chain: SSNYMAPYDNYVPSA
inactive: [1] 0.743 | [2] 0.502 | [3] 0.583 | [4] 0.592 | [5] 0.519 | [6] 0.616

B4: PHAG1_HUMAN_105 (peptide)
chain: TLTCMQHYEEVQTSA
inactive: [1] 1.37 | [2] 1.31 | [3] 1.36 | [4] 1.21 | [5] 1.24 | [6] 1.94

B5: ARGAL_HUMAN_131 (peptide)
chain: ALEEDVIYDDVPCES
inactive: [1] 1.18 | [2] 1.05 | [3] 1.04 | [4] 1.05 | [5] 0.994 | [6] 1.77

B6: PR15A_HUMAN_391 (peptide)
chain: VFLKSWVYQPGEDTE
inactive: [1] 1.1 | [2] 1.01 | [3] 1.03 | [4] 1.08 | [5] 1.27 | [6] 1.43

B7: PGFRB_HUMAN_771 (peptide)
chain: ADIESSNYMAPYDNY
inactive: [1] 0.475 | [2] 0.426 | [3] 0.502 | [4] 0.507 | [5] 0.488 | [6] 0.398

B8: PTGS2_HUMAN_446_YA (peptide)
chain: DQSRQMKYQSFNEAR
inactive: [1] 0.845 | [2] 0.74 | [3] 0.689 | [4] 0.769 | [5] 0.741 | [6] 0.928

B9: PLCG1_HUMAN_506 (peptide)
chain: DPVNHEWYPHYFVLT
inactive: [1] 1.24 | [2] 1.23 | [3] 1.29 | [4] 1.21 | [5] 1.38 | [6] 1.26

B10: PDP1_HUMAN_381 (peptide)
chain: DQLNDNEYTKFIPPN
inactive: [1] 0.624 | [2] 0.471 | [3] 0.666 | [4] 0.716 | [5] 0.603 | [6] 0.777

B11: PHAG1_HUMAN_181 (peptide)
chain: NMVEDCLYETVKEIK
inactive: [1] 1.41 | [2] 1.01 | [3] 0.948 | [4] 1.21 | [5] 1.07 | [6] 1.61

B12: ARHGAP5_HUMAN_1109_YA (peptide)
chain: KGASDEIYVVPDDSQ
inactive: [1] 1.33 | [2] 1.44 | [3] 1.1 | [4] 1.29 | [5] 1.42 | [6] 1.46

B13: ARHGDIA_HUMAN_27 (peptide)
chain: EDEHSVNYKPPAQKS
inactive: [1] 0.744 | [2] 0.803 | [3] 0.705 | [4] 0.706 | [5] 0.718 | [6] 0.77

B14: PGFRB_HUMAN_778 (peptide)
chain: YMAPYDNYVPSAPER
inactive: [1] 0.714 | [2] 0.601 | [3] 0.561 | [4] 0.693 | [5] 0.708 | [6] 0.772

B15: PLCG1_HUMAN_775_YA (peptide)
chain: EPDAGALYEGRNPGF
inactive: [1] 0.543 | [2] 0.472 | [3] 0.518 | [4] 0.489 | [5] 0.541 | [6] 0.634

B16: PTK2_HUMAN_194 (peptide)
chain: ALEKKSNYEVLEKDV
inactive: [1] 1.31 | [2] 1.31 | [3] 1.19 | [4] 1.22 | [5] 1.25 | [6] 1.43

B17: PGFRA_HUMAN_731 (peptide)
chain: SFENNGDYMDMKQAD
inactive: [1] 0.776 | [2] 0.93 | [3] 0.947 | [4] 0.843 | [5] 0.811 | [6] 0.777

B18: PECR_HUMAN_179 (peptide)
chain: GAARAGVYNLTKSLA
inactive: [1] 0.785 | [2] 0.64 | [3] 0.759 | [4] 0.632 | [5] 0.723 | [6] 0.755

B19: PPIP2_HUMAN_323 (peptide)
chain: SSPDDPNYSLVDDYS
inactive: [1] 0.854 | [2] 0.912 | [3] 0.835 | [4] 0.869 | [5] 0.886 | [6] 0.866

B20: PGFRB_HUMAN_970_YA (peptide)
chain: GEGAKKKYQQVDEEF
inactive: [1] 1.02 | [2] 1.07 | [3] 0.935 | [4] 1.02 | [5] 1.06 | [6] 1.46

B21: PGFRA_HUMAN_572_YA (peptide)
chain: ISPDGHEYIAVDPMQ
inactive: [1] 0.844 | [2] 0.59 | [3] 0.591 | [4] 0.694 | [5] 0.522 | [6] 0.534

B22: ARHGAP5_HUMAN_306 (peptide)
chain: NHPDYEEYINLEGTR
inactive: [1] 1.01 | [2] 0.822 | [3] 0.897 | [4] 0.712 | [5] 0.795 | [6] 0.648

B23: PRS4_HUMAN_439 (peptide)
chain: EGTPEGLYLGGGGGG
inactive: [1] 0.586 | [2] 0.456 | [3] 0.45 | [4] 0.468 | [5] 0.507 | [6] 0.504

B24: PDPK1_HUMAN_9 (peptide)
chain: ARTTSQLYDAVPIQS
inactive: [1] 0.834 | [2] 0.702 | [3] 0.735 | [4] 1.25 | [5] 0.858 | [6] 0.825

B25: PKDCC_HUMAN_148_YA (peptide)
chain: AQAMGSGYTKAVARV
inactive: [1] 0.801 | [2] 0.756 | [3] 0.749 | [4] 0.974 | [5] 0.652 | [6] 0.925

B26: PLD2_HUMAN_415 (peptide)
chain: ALGINSGYSKRALML
inactive: [1] 0.545 | [2] 0.405 | [3] 0.499 | [4] 0.428 | [5] 0.567 | [6] 0.479

B27: PSB4_HUMAN_102 (peptide)
chain: MLGASGDYADFQYLK
inactive: [1] 0.658 | [2] 0.611 | [3] 0.716 | [4] 0.611 | [5] 0.686 | [6] 0.545

B28: PGFRB_HUMAN_778_YA (peptide)
chain: AMAPADNYVPSAPER
inactive: [1] 0.66 | [2] 0.601 | [3] 0.65 | [4] 0.791 | [5] 0.729 | [6] 0.69

B29: PTEN_HUMAN_174_YA (peptide)
chain: TIPSQRRYVAAASAL
inactive: [1] 0.89 | [2] 1.02 | [3] 0.716 | [4] 0.796 | [5] 0.798 | [6] 0.816

B30: PHAG1_HUMAN_317 (peptide)
chain: EEEISAMYSSVNKPG
inactive: [1] 0.68 | [2] 0.789 | [3] 0.672 | [4] 0.676 | [5] 0.586 | [6] 0.78

B31: PELP1_HUMAN_920 (peptide)
chain: EEEDEEEYFEEEEEE
inactive: [1] 1.37 | [2] 1.19 | [3] 1.14 | [4] 0.997 | [5] 1.17 | [6] 1.73

B32: PFKAP_HUMAN_651 (peptide)
chain: NYTTDFIYQLYSEEG
inactive: [1] 1.82 | [2] 1.24 | [3] 1.26 | [4] 1.07 | [5] 1.23 | [6] 1.39

B33: PSB1_HUMAN_150 (peptide)
chain: EEGKGAVYSFDPVGS
inactive: [1] 0.56 | [2] 0.625 | [3] 0.622 | [4] 0.527 | [5] 0.563 | [6] 0.569

B34: PRMT5_HUMAN_304 (peptide)
chain: YELFAKGYEDYLQSP
inactive: [1] 0.638 | [2] 0.614 | [3] 0.541 | [4] 0.53 | [5] 0.555 | [6] 0.515

B35: PRMT5_HUMAN_297_YA (peptide)
chain: NRPPPNAYELFAKGA
inactive: [1] 1 | [2] 1.01 | [3] 0.96 | [4] 0.81 | [5] 0.943 | [6] 1.15

B36: ARAP2_HUMAN_77 (peptide)
chain: KMQDIPIYANVHKTK
inactive: [1] 1.16 | [2] 1.39 | [3] 1.6 | [4] 1.06 | [5] 1.55 | [6] 1.76
